Some of the results follow.
Tested on: PfSIP2 AP2 domain 1 (GST-tagged)
Assay: gcPBM binding intensity (ln(normalized median fluorescence intensity)); higher = stronger DNA binding
Summary of the method: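 An Agilent 4 × 180k array carrying primer-extended double-stranded 36-bp intergenic genomic probes and negative controls received GST-tagged P. falciparum DNA-binding domains expressed in E. coli, about 25 μg on average, for 1 h. The binding buffer contained 1× PBS, 1% milk, 0.2 mg/ml BSA, 0.5% salmon testes DNA and 0.03% Triton X-100. Binding intensity is the top Masliner-normalised natural-log median intensity across replicate spots of either probe orientation, read after Alexa488 anti-GST antibody staining and a 488 nm scan.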

Row | Sequence | gcPBM binding intensity (ln)
1 | AAAATATATATATATATATATATATGTATACTCCTA [XGTACX_negctrl_site312] | 7.96
2 | TTTTATGTTTCAAAATGTACATTAAAATATACCATA [XGTACX_site1713] | 7.01
3 | TTATTTATAAATATTAATTTTTTTTTTTTTTTTTTT [XGTACX_negctrl_site105] | 7.8
4 | CATATGCATACTATACGTACATATGTATATAATATA [XGTACX_site7738] | 7.18
5 | TTTTATTATTGAATACTAGTATATATAATATGAAGA [CACACA_negctrl_site910] | 7.22
6 | ATATATATATTTTTTAAACACACACCGAAATATTTG [CACACA_site8937] | 8.3
7 | TTAATTAAAACGAATACACACATAAATATATAAAAG [CACACA_site1254] | 7.27
8 | TATATATATATGTGCACACATAATAAAAAAAAAAAT [CACACA_site3831] | 9.49
9 | TATAAAGCATATTAAAGTACTTATTTTCCTTTTTCT [XGTACX_site8892] | 6.75
10 | TTTTATTTTATTCTTAAATAAGTATTATAAAATATG [XGTACX_negctrl_site201] | 6.75
11 | TTATTTGAACAATATGCACACATTTTATTTATTTTA [CACACA_site3420] | 7.13
12 | TTAATGTTGTATGGTTGTACAATAAGCCCCTTTTAA [XGTACX_site2484] | 6.99
13 | TATGATGATATAAAAACACACACATATAATATAATA [CACACA_site8321] | 7.13
14 | TTAAAGCTTACATATACACACATACATAAATTCATA [CACACA_site8785] | 7.07
15 | GTAAAATAAAATATATGTACATATGTATATGAGGTA [XGTACX_site3743] | 7.24
16 | GACATATTCCCCCCCACACACACACCCACATACATA [CACACA_site2302] | 9.81
17 | TTTTGATCATCCAAAATATCTTCATCTGAACTACTA [CACACA_negctrl_site939] | 6.58
18 | TACCCTGATCGGCATGCATGTAAGTAACAAATATAT [TGCATGCA_site153] | 7.05
19 | ATTTAGAAATATATTTGTACATATATATATATATAT [XGTACX_site7129] | 9.63
20 | ATTCAAACAAATTAATGTACATATATATAAGATATT [XGTACX_site1531] | 7
21 | ATATATACATATAAATGTACATAATTATTATGCACA [XGTACX_site1261] | 9.26
22 | ATAAAAAGAAAAAAGGGTACACTATACTATTTAAAA [XGTACX_site4467] | 7.18

Row | Sequence | gcPBM binding intensity (ln)
23 | CTACATATTAATATATGTACATATTAATATATCTAA [XGTACX_site7118] | 7.01
24 | TGTTGATAAAAAATAAAAAATAAAAAAATAAAATAT [TGCATGCA_negctrl_site559] | 6.88
25 | AATGTGCACACGCGTACACACAAAAAAAGAAAAAAA [CACACA_site7031] | 9.68
26 | TATTATTTGAGTAGTTGTACTCATTAATATATAAAA [XGTACX_site3468] | 7.45
27 | TATTAATTTCACCTTTCACATATGGAAAAAAAAAAA [CACACA_negctrl_site1243] | 7.03
28 | CAAAATATTTATATCACACATATAAATAAAAATAAA [CACACA_site6028] | 6.98
29 | ATTAACATTTTCGTATGTACATATATAATATATGTT [XGTACX_site7184] | 7.1
30 | ATGTTTATTTATTTATGTACTTATATATTTATATAT [XGTACX_site7924] | 7.15
31 | AATAAAAATAAAAATTGTACACTTTTTTAATATTTA [XGTACX_site892] | 6.72
32 | TTTCCAAATACAACTACACACAAACAAAAATTATAT [CACACA_site4641] | 7.25
33 | TATCTCATAGTATACACACACACACGCGCACATATA [CACACA_site6917] | 7.6
34 | TGTATATATTATATTTGTACATATAAAACTATATGT [XGTACX_site4782] | 6.97
35 | TTTTGGTGGGTTACAAGTACTCAAAATGGATTGTTA [XGTACX_site1951] | 6.94
36 | AAAAAAAAAAAAAAAACATGCAATAAAGTGTGCGTA [TGCATGCA_site982] | 7.5
37 | TTAAATATATGTAATACGCACACTTAATATTTTGAG [CACACA_site4170] | 6.97
38 | TTTCGAAAAACAACAAGAAAAAAAAAAAAAAAAAAA [XGTACX_negctrl_site449] | 6.76
39 | TCACATACATTACTTACACACCATATTGATATATAC [CACACA_site6353] | 7.39
40 | ATTAAATCCGCACGCACACACACATATTAATAAAAA [CACACA_site3992] | 7.83
41 | TAAAAAAGAAAATATATACACACCAAAAAAAAAAAA [CACACA_site3146] | 6.82
42 | AAACAAAAAAATTGAAATAAAATGAAGTAAATGAAC [TGCATGCA_negctrl_site129] | 7.52
43 | ACATGTCTTAAAAGACGTACATATAAAAGAACCCTA [XGTACX_site8940] | 7.01
44 | AATATTAAAGAATAATGTACAAAATAAAAGCAAAGA [XGTACX_site3550] | 7.67

Source: the supplement of paper PMC11417369
